Results on 167 variants are retold here after the RNAGym collection of RNA variant scans (doi:10.1093/nar/gkz1192).

B1: CPEB3 Ribozyme (parent)
chain: UAACAGGGGGCCACAGCAGAAGCGUUCACGUCGCAGCCCCUGUCAGAUUCUGGUGAAUCUGCGAAUUCUGCUGUAUAUCUC

Read counts are not given, so values of variants with three or more changes are uncertain.

The data set covers variants of B1. The data set is described as follows: self-cleavage, relative activity (ratio to wild type); higher = more cleavage; in vitro, sequencing. The gist of the method: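 Relative activity compares each variant's cleaved/total read fraction with that of the unmutated ribozyme. To get these fractions, barcoded CPEB3 ribozyme libraries from rounds of error-prone PCR were transcribed with T7 RNA polymerase for 5 hours at 37°C and then given 15 min of DNase I treatment before EDTA was added. The RNAs were reverse transcribed with template switching and sequenced on Illumina, and DNA sequencing linked barcodes to variants. A minimum of 5 reads applied, and three batches were averaged.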
Take A13C A57U C59U A64G U72C A77U U78C: the self-cleavage was found to be 0.16.
On to A13C A18G A47G, for which the self-cleavage was 0.41.
Turning to A13C C14A U25C A28G A35U U67C, the self-cleavage came out at 0.04.
Under A13C A15G A65G stands 0.67; under A13C A18G A64G U69C U72C, 0.84; under A13C U25A U26C A35G U69G, 0.14.
On to C12U U41A A47G C68G G73U C79A, for which the self-cleavage came out at 0.06.
The figure for C12U U26C U41C U66C is 0.38.
The figure for A13C A18G U54G U67C U80G is 0.15; for A13C C39U A64U it is 0.07; for A13C U26C A45G U78C it is 0.22.
Under A13C C37U U80C stands 0.79; under A13C G24A A47G U76A U78C, 0.09.
On to C12U U31C U51A U72C, for which the self-cleavage was 1.22.
Under A13C A20G U43C A65G stands 0.18; under C12U U31A A35G A47G U76C, 0.95.
The figure for A13C U25C U26C is 0.26; for C12U U26C A45G U51C U72A it is 0.21.
As for C12U U31C A35U G63U U72C, the self-cleavage was 0.89.
The figure for C12U U43C U76C is 0.89; for C12U U69A U76C it is 1.2.
The figure for C12U U31A U41C is 0.87.
On to A13C A45G U48C A64C A65U A77G, for which the self-cleavage stood at 0.14.
The figure for A13C A20U A28C A45G U67C U80C is 0.08; for C12U U26C U41A A45G A56G U60C U72A it is 0.12.
Take A13C G24A U72C: the self-cleavage was 0.21.
C12U U43C A45G A57G G70U: the self-cleavage came to 0.18.
In the case of A13C A18G U49A U78C, the self-cleavage was determined as 0.31.
For the variant A13C A56G U74A, the self-cleavage was 1.07.
Under A13C A15U U26A A45U stands 0.28.
The figure for A13C C29U U41A A45U A75G is 0.14.
Turning to A13C A15U U25C A35U U51C, the self-cleavage is 0.23.
The figure for A13C A28U A57G U60C A65G U72G A75G is 0.08.
Take A13C U26C G42A: the self-cleavage turned out to be 0.32.
Under C12U U66A U74A stands 1.24; under A13C A18G A21C U43C, 0.24.
Regarding C12U U60A A77U, the self-cleavage is 0.9.
Consider A13C A28U U43C A75G, for which the self-cleavage is 0.24.
As to A13C G24A U26C G55U U76C, the self-cleavage worked out at 0.15.
Consider A13C A35G U80C, for which the self-cleavage was found to be 1.16.
The figure for A13C A35G A56G U69C is 1; for A13C A28G A45G A64G it is 0.25; for C12U U67A U72G it is 0.74.
Consider C12U U43C U49C, for which the self-cleavage came to 0.31.
Consider A13C A35U U41C G42A A47G, for which the self-cleavage turned out to be 0.16.
The figure for C12U U67A U78C U80C is 0.33.
For the variant A13C C32U U58C, the self-cleavage is 0.23.
Take A13C A18G A21G U43C: the self-cleavage is 0.16.
The figure for C12U U60C U72C is 0.6; for A13C U31C A35C it is 0.52.
For the variant C12U U41C U43A A47G U51A, the self-cleavage was determined as 0.93.
Regarding A13C A21U U48C U60C, the self-cleavage came out at 0.14.
The figure for A13C U25C U48C G52C is 0.12.
Under A13C C34A A35G U43C A77G stands 0.21; under A13C G24A A47G U54C A65C, 0.06.
As to C12U U41C U78C, the self-cleavage is 1.18.
Under A13C C40U A57G stands 0.25; under C12U U43C A45U A47G U76C, 0.14; under A13C A20G A35G U41C U72C, 1.17.
In the case of C12U U51C A56U, the self-cleavage turned out to be 0.81.
Under A13C A20G U60A G70C U76A stands 0.15; under A13C U25C A45U, 0.18; under C12U U41C U60A G70A, 0.52.
As to A13C C14G G61A U72A, the self-cleavage stood at 0.12.
Under A13C C17U U25C U26C A28G U80C stands 0.1; under A13C U26A A64G U72A, 0.13.
The figure for C12U U26C A28G A35U is 0.18; for C12U U69C A77U it is 0.96; for C12U U41A U66C A77U it is 0.05.
On to A13C A20G U31C U51C U60A, for which the self-cleavage amounted to 0.03.
The figure for A13C A28G U60C C68A is 0.17; for C12U U41A U54C A64G C79U it is 0.25.
Under A13C A18U C40A U43C A65G stands 0.06.
C12U U26C C50U A56G: the self-cleavage turned out to be 0.27.
The figure for A13C A35G U41C A65G U72C is 1.06.
On to A13C C34U U41C U48G, for which the self-cleavage amounted to 0.09.
Under A13C U25A U60C stands 0.18; under C12U U31C U72C, 1.14; under A13C A18G C39U G52C A65U, 0.08.
Under A13C C14U U25C U31C A47U U60A stands 0.15.
For C12U U31C A56G U78C, the self-cleavage was 0.9.
Under C12U U26C U74C stands 1.01; under C12U U41C A77U, 1.27.
Turning to A13C A28U C50U, the self-cleavage was 0.45.
Consider A13C A15U G30A C37A U43C A56U A64U, for which the self-cleavage is 0.07.
Turning to C12U U54C U58C A64G U72C U78C, the self-cleavage came out at 0.63.
The figure for C12U U66C U72A U78A is 0.98; for A13C G19C U41A G63A A64G U72A U78A it is 0.11; for A13C U25C U31G G63U it is 0.33.
The figure for A13C G53A U58C A65U is 0.15; for C12U U49C A64C it is 0.1.
In the case of A13C A20G C39A U41G U67C U74A, the self-cleavage came to 0.05.
A13C G33A U41C: the self-cleavage was determined as 0.24.
Under C12U U41C U60C stands 1.13; under C12U U43C G70U, 0.16.
Regarding C12U U58C U80A, the self-cleavage came out at 0.93.
The figure for A13C U25A A64U U76C is 0.07.
Turning to A13C A15G U41C U43C U60A G63U, the self-cleavage came to 0.1.
In the case of A13C C17U U43C U54A U60A, the self-cleavage turned out to be 0.15.
Regarding A13C G22A U25C A56U C71G, the self-cleavage was found to be 0.18.
Under A13C A35C U67G U78C stands 0.13; under A13C C14A A15U A28U U72C, 0.25.
As to A13C C32U C38U A45G U80A, the self-cleavage was 0.03.
Under A13C U26C U51C U67C U80C stands 0.15; under A13C C29A C32U C71U, 0.13; under A13C A15G C68A, 0.24.
The figure for A13C U25C U67G is 0.2; for A13C U25C U67C it is 0.18.
As to C12U U48C C50U, the self-cleavage worked out at 0.7.
Under A13C C44U U80C stands 0.47.
As to A13C A18U U72A, the self-cleavage worked out at 0.15.
Turning to C12U U31C A45U A57G, the self-cleavage came out at 0.27.
C12U U31C A45G A56C A64U: the self-cleavage came out at 0.13.
Under A13C A21C U41C A45G A64G stands 0.23; under A13C C27A A35G A45G U60C, 0.22.
The figure for C12U U31C U43C U72C is 0.53; for A13C A15G A35G it is 0.63; for A13C A35U U54A U60A it is 0.2.
The figure for A13C A28G C29G C44A U48C A56C A57G is 0.14; for C12U U41C A45C U60C U66G it is 0.
Take C12U U41A A64U: the self-cleavage stood at 0.16.
For the variant C12U U41A A64G U67C, the self-cleavage came out at 0.1.
The figure for A13C U31A A45G is 0.25; for A13C U25C U76G it is 0.63; for A13C A20U U31A C39G U74A it is 0.23.
As for A13C A20G U54C U66C U69C, the self-cleavage worked out at 0.18.
For C12U U49A A64U, the self-cleavage worked out at 0.23.
For A13C A15G U25C U54C, the self-cleavage was 0.2.
Consider A13C A20G U74A, for which the self-cleavage was 0.87.
Under C12U U41A U60C stands 0.25.
The figure for C12U U26C U54C U72A is 0.34; for A13C G33A C38U U51C A56C A64G it is 0.07.
Regarding A13C C17U U54A, the self-cleavage was 0.44.
Under A13C C40A A56G stands 0.34.
Under A13C A64G U72C A77U stands 0.82.
Under A13C C23U U78C stands 0.25.
Turning to C12U U48A U49A U74C, the self-cleavage was determined as 1.21.
Under C12U U43C A45G U49C stands 0.18; under A13C U25C U31A U78C, 0.09; under C12U U43C U54A A77U, 1.06.
The figure for C12U U49C U60C is 0.11; for C12U U41C U51A it is 1.41; for C12U U41C U51C it is 0.88.
For the variant C12U U51A U74C, the self-cleavage came out at 1.3.
Under A13C A47G G52A stands 0.96; under A13C C23U A35C, 0.17; under A13C C34U U43C A64U, 0.08.
The figure for C12U U31A U66C U67C G70U A75G is 0.21.
The figure for A13C C39U U51A is 0.8; for A13C A20G C23G U67A it is 0.05; for A13C A56G U78C it is 0.71.
Turning to C12U U31C U58A A64G, the self-cleavage amounted to 0.29.
The figure for A13C A18U G36A U41A G53A U60A U78A is 0.07; for A13C A28U G52U it is 0.87; for A13C C17U U60A C62U it is 0.08.
The figure for A13C A18U C23G C32G U41C is 0.06; for A13C A35G U60C it is 0.87; for A13C A15G C32A U54C it is 0.19.
The figure for A13C A57G C62G U69C U78C U80C is 0.23; for A13C U26C A57G it is 0.35; for C12U U67C U72C it is 0.31.
On to C12U U41C U74A, for which the self-cleavage is 1.37.
As for C12U U26C C39G U58C A64G U74C A75G, the self-cleavage worked out at 0.04.
Under A13C U26C A45G stands 0.19; under A13C A20U U69A A75G, 0.11; under A13C A21G G33A U58C, 0.08.
In the case of C12U U43G U72G A75G A77G, the self-cleavage turned out to be 0.09.
